Experimental findings from US20100323950A1, “USE OF BETA-MELANOTROPIN AS A THERAPEUTIC AGENT, EG FOR THE TREATMENT OF AIDS OR ALZHEIMER” (priority 2007, published 2010) are described below.

For one series, the system named is CEM-SS cells. The experiment in a line: Cytotoxicity (MTS cell viability) in CEM-SS cells. The following applies: CEM-SS cells plus peptide only, 10 micrograms per ml.
Series [1] has as its system lymphocytotropic strain HIV-1IIIB. The series is described as follows: HIV-1 antiviral assay (CPE reduction) in CEM-SS cells. To be noted: peptide 10 micrograms per ml, MOI approx. 0.01, 6 days post-infection, MTS. The format is cell-based.

As to `Cc1cn([C@H]2C[C@H](N=[N+]=[N-])[C@@H](CO)O2)c(=O)[nH]c1=O` [AZT], in the series with CEM-SS cells, the “% Cell viability” value stood at 97%. The “% CPE reduction in HIV-1 infected CEM-SS cells” value in series [1] amounted to 99%.
